Data from the supplement of paper PMC6135742.
Where a name gives a salt, the structure may show the parent alone. ± gives the standard deviation of the averaged measurements. In all, about 2,600 compounds were measured (“MBP+ mature oligodendrocyte number relative to DMSO vehicle control”: median about -0.34, highest 2% from about 13 on). The list shows a part of the results.

test system: jimpy (Plp1 jimpy) mouse iPSC-derived oligodendrocyte progenitor cells; test: MBP+ mature oligodendrocyte number relative to DMSO vehicle control (SDs above negative control mean); higher = more surviving jimpy oligodendrocytes (rescue); settings: 10 µM; 3 days
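Further: 10 µM single dose with 3-day oligodendrocyte differentiation.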

SMILES	MBP+ mature oligodendrocyte number
CCO[C@@H]1OC(=O)C[C@@H]1NC(=O)[C@@H]1CCCN1C(=O)[C@@H](NC(=O)c1ccc(N)c(Cl)c1)C(C)(C)C	0.227
CCN(CC)CCNC(=O)c1cc(S(C)(=O)=O)ccc1OC [Tiapride hydrochloride]	0.00298
O=C(CCCN1CC=C(n2c(=O)[nH]c3ccccc32)CC1)c1ccc(F)cc1 [Droperidol]	0.233 ± 0.23
CCCC(=O)O[C@]1(C(=O)COC(C)=O)CC[C@H]2[C@@H]3C[C@H](F)C4=CC(=O)C=C[C@]4(C)[C@@]3(F)[C@@H](O)C[C@@]21C [Difluprednate]	10.7
Nc1ccc(C(=O)NCC(=O)O)cc1 [4-Aminohippuric Acid]	1.85
COc1ccc(NS(=O)(=O)c2ccc(N)cc2)nn1 [Sulfamethoxypyridazine]	2.52
OC[C@H]1O[C@@H](Oc2ccc(O)cc2)[C@H](O)[C@@H](O)[C@@H]1O [Arbutin]	-0.388
O=C(c1ccc(C(=O)N2CCC(N3CCCC3)CC2)c(Nc2ccccc2)c1)N1CCC(N2CCCC2)CC1	-0.945
OCCN1CCN(CCCN2c3ccccc3Sc3ccc(Cl)cc32)CC1 [Perphenazine]	< -3.97
CN(C)CCc1c[nH]c2ccc(Cn3cncn3)cc12 [Rizatriptan benzoate salt]	-0.0098
CN(C)CCc1c[nH]c2ccc(Cn3cncn3)cc12 [Rizatriptan Benzoate]	-0.557
NCCCCCCCCCCN [1,10-Diaminodecane]	1.5
CC(C)C[C@@H](C=O)NC(=O)[C@H](CC(C)C)NC(=O)[C@H](CC(C)C)NC(=O)OCc1ccccc1	< -6.01
O=c1oc(Cl)c(Cl)c2ccccc12 [3,4-Dichloroisocoumarin]	0.555
COC1=CC(c2cc3ccccc3[nH]2)=N/C1=C\c1[nH]c(C)cc1C [Obatoclax Mesylate (GX15-070)]	-6.44
N=C(N)NC(=N)N1CCOCC1 [Moroxydine HCl]	-0.78
CC(C)(C#N)c1ccc(N2C(=O)OCc3cnc4ccc(-c5cnc6ccccc6c5)cc4c32)cc1	-4.4
CC(=O)Oc1cccc2c1C(=O)c1c(OC(C)=O)cc(C(=O)O)cc1C2=O [Diacerein]	1.25
CCN(CC)Cc1ccc2cc(COC(=O)Nc3ccc(C(=O)NO)cc3)ccc2c1 [Givinostat (ITF2357)]	< -4.81
COc1cc(OC)c(C=C2C(=O)Nc3ccccc32)c(OC)c1	-0.533
O=S(=O)(c1ccccc1)c1cnc2c(N3CCNCC3)cccc2c1	1.69
CC(C)C[C@H](NC(=O)[C@H](CCc1ccccc1)NC(=O)CN1CCOCC1)C(=O)N[C@@H](Cc1ccccc1)C(=O)N[C@@H](CC(C)C)C(=O)[C@@]1(C)CO1 [Carfilzomib (PR-171)]	< -6.01
COc1ccc(C2(CNC(=O)c3ccc(NC(=O)c4ccco4)cc3)CCOCC2)cc1	-2.6
O=C(O[C@H]1CN2CCC1CC2)N1CCc2ccccc2[C@@H]1c1ccccc1 [Solifenacin succinate]	-5.85

SMILES	MBP+ mature oligodendrocyte number
NC(=O)N/N=C/c1ccc([N+](=O)[O-])o1 [Nitrofural]	0.613
CC1=CC(=O)NS(=O)(=O)O1 [Acesulfame Potassium]	1.22
CN(C)CCC[C@@]1(c2ccc(F)cc2)OCc2cc(C#N)ccc21 [Escitalopram Oxalate]	7.84
CN1CCCC(n2nc(Cc3ccc(Cl)cc3)c3ccccc3c2=O)CC1 (configuration not stated) [Azelastine HCl]	-4.25
CCN1CCN(C(=O)N[C@@H](C(=O)N[C@@H]2C(=O)N3[C@@H]2SC(C)(C)[C@@H]3C(=O)O)c2ccccc2)C(=O)C1=O [Piperacillin Sodium]	-0.438
CN(NC(=O)CC(=O)NN(C)C(=S)c1ccccc1)C(=S)c1ccccc1 [Elesclomol (STA-4783)]	1.16
CO[C@@H]1[C@@H](OC(N)=O)[C@@H](O)[C@H](Oc2ccc3c(O)c(NC(=O)c4ccc(O)c(CC=C(C)C)c4)c(=O)oc3c2C)OC1(C)C [Novobiocin Sodium]	2.24
Nc1cc(C(Cl)=C(Cl)Cl)c(S(N)(=O)=O)cc1S(N)(=O)=O [Clorsulon]	1.53
CC[C@H](C)C(=O)O[C@H]1CCC=C2C=C[C@H](C)[C@H](CC[C@@H]3C[C@@H](O)CC(=O)O3)[C@H]21 [Mevastatin]	-4.55 ± 1.6
C[C@H](CCC(=O)O)[C@H]1CC[C@H]2[C@@H]3[C@H](O)C[C@@H]4C[C@H](O)CC[C@]4(C)[C@H]3CC[C@]12C [Chenodeoxycholic Acid]	1.69
CC(=O)OCC(CCn1cnc2cnc(N)nc21)COC(C)=O [Famciclovir]	-0.0511 ± 1.1
COc1ccc([C@@H]2CC(=O)c3c(O)cc(O[C@@H]4O[C@H](CO)[C@@H](O)[C@H](O)[C@H]4O[C@@H]4O[C@@H](C)[C@H](O)[C@@H](O)[C@H]4O)cc3O2)cc1O [Neohesperidin]	0.283
NNc1nncc2ccccc12 [Hydralazine HCl]	0.619
NNc1nncc2ccccc12 [Hydralazine hydrochloride]	0.712
C=CC(=O)Nc1cccc(Oc2nc(Nc3ccc(N4CCN(C)CC4)cc3OC)ncc2Cl)c1	< -6.7
O=C(/C=C/c1ccc(O)c(O)c1)OCCc1ccccc1 [Caffeic Acid Phenethyl Ester]	-4.64
O=C(/C=C/c1ccc(O)c(O)c1)OCCc1ccccc1 [Caffeic acid phenethyl ester]	< -3.34
CN1CCN(CCCN2c3ccccc3Sc3ccc(Cl)cc32)CC1 [Prochlorperazine dimaleate]	< -3.85
Cc1nc(=O)c2cc(CN(C)c3ccc(C(=O)N[C@@H](CCC(=O)O)C(=O)O)s3)ccc2[nH]1 [Raltitrexed]	0.982
O=C1c2ccccc2C(=O)c2c1ccc(O)c2O [Alizarin]	0.339
N[C@@H]1[C@H]2CN(c3nc4c(cc3F)c(=O)c(C(=O)O)cn4-c3ccc(F)cc3F)C[C@@H]12 [Trovafloxacin mesylate]	1.88
CC(/C=C1\SC(=S)N(CC(=O)O)C1=O)=C\c1ccccc1 [Epalrestat]	-0.174 ± 1.1
CS(=O)(=O)N1CCc2c(-c3cnc(N)nc3)nc(N3CCOCC3)nc21	< -6.01
